Where “and” joins values, the source holds several entries; their conditions need not be identical. Equal entries are not always repeated. This list was built around the results that the source calls inconclusive (neither active nor inactive); the mix of calls is not that of the screen. For some of these results: Where the call is inconclusive, the potency comes from a doubtful curve fit. Some compounds were tested as several samples or in several runs, with calls that do not always agree. Calls of active or inactive are those of the source. Unless noted, calls follow the shape of the dose curve; as a rule, active = well fitted curve in the direction sought with a large enough effect in the repeat runs; inconclusive = weak or mixed curves; inactive = no such curve, though single readings can be large; an effect the other way counts as inactive or inconclusive.
Legend:
[1] = qHTS assay to identify aromatase inhibitors - cell viability counter screen (AID 743084); details: MCF-7 aro ERE viability, CellTiter-Fluor, 24 h; activity change, negative = cytotoxicity: at 70.3 µM (top of the series);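 also: cells stimulated with testosterone during compound exposure; potency is read from the fitted curve at half-maximal effect; nearly all actives have a fitted effect of over 55% in size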
[2] = qHTS assay to identify small molecule that activate the aryl hydrocarbon receptor (AhR) signaling pathway - cell viability counter screen (AID 743086); also: potency is read from the fitted curve at half-maximal effect; nearly all actives have a fitted effect of over 45% in size
Summary of the method: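 Cytotoxicity counter screen: CellTiter-Fluor signal (30 min, 37 C) in 4000 HepG2 cells/well carrying the DRE-luciferase reporter, following 24 h compound exposure at 37 C.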

[3] = biological target: Peroxisome proliferator-activated receptor gamma (Homo sapiens) (UniProt P37231); assay: qHTS assay to identify small molecule antagonists of the peroxisome proliferator-activated receptor gamma (PPARg) signaling pathway (AID 743191; calls by dose curve; also: nearly all actives have a fitted effect of over 30% in size; also: potency is read from the fitted curve at half-maximal effect); details: HEK293H PPARg-UAS-bla, beta-lactamase ratio, antagonist, 17 h; ratio activity, negative = inhibition: at 62.6 µM (top of the series) unless noted
Summary of the method: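 Beta-lactamase reporter under UAS control in HEK293H PPARg-bla cells; compound treatment 17 h at 37C. Read-out: fluorescence intensity after 1 h room-temperature incubation with LiveBLAzer B/G FRET substrate.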

[4] = qHTS assay to identify small molecule antagonists of the peroxisome proliferator-activated receptor gamma (PPARg) signaling pathway - cell viability counter screen (AID 743194); details: PPARg-bla HEK293H viability, CellTiter-Glo luminescence, 17 h, co-treated with 50 nM rosiglitazone; activity change, negative = cytotoxicity: at 62.6 µM (top of the series); also: potency is read from the fitted curve at half-maximal effect; nearly all actives have a fitted effect of over 55% in size
Summary of the method: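 Viability was measured as CellTiter-Glo luminescence in GeneBLAzer PPARg UAS-bla HEK293H cells. These cells had been exposed 17 h at 37 C to compounds together with rosiglitazone at 50 nM final, with the beta-lactamase readout taken in the same wells.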

[5] = qHTS assay for small molecule agonists of the antioxidant response element (ARE) signaling pathway (AID 743202; active = well fitted activation curve with a large enough effect in the signal ratio in the repeat runs, not every such curve was filed as active; inconclusive = weak or mixed curves, or effect the other way; inactive = no such curve, though single readings can be large or run the other way; the % refers to the signal ratio; also: potency is read from the fitted curve at half-maximal effect); details: HepG2 ARE-bla reporter, beta-lactamase FRET, 16 h; activation: at 73.3 µM (top of the series) unless noted
Summary of the method: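 Quantitative high-throughput format in HepG2 cells bearing an integrated ARE-beta-lactamase reporter. Compound exposure lasted 16 h at 37 C, and fluorescence was read 2 h after adding LiveBLAzer B/G substrate at room temperature.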

[6] = qHTS assay for small molecule activators of the heat shock response signaling pathway - cell viability counter screen (AID 743209); details: HSE-bla HeLa viability, CellTiter-Glo luminescence, 5 h; activity change, negative = cytotoxicity: at 62.6 µM (top of the series); also: potency is read from the fitted curve at half-maximal effect; nearly all actives have a fitted effect of over 50% in size
Summary of the method: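 Luminescence from CellTiter-Glo, added after the beta-lactamase FRET read, gave the viability signal. Cells were HSE-bla HeLa treated with DMSO-dissolved compounds for 5 h at 37 C following overnight plating.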

[7] = qHTS assay for small molecule activators of the heat shock response signaling pathway (AID 743210; active = well fitted activation curve with a large enough effect in the signal ratio in the repeat runs, with a control signal flat, not every such curve was filed as active; inconclusive = weak or mixed curves; the % refers to the signal ratio; also: potency is read from the fitted curve at half-maximal effect); details: HeLa HSE-bla reporter, beta-lactamase ratio, 5 h; activation: at 62.6 µM (top of the series)
Summary of the method: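 HeLa HSE-bla cells, overnight plating; cpd in DMSO 5 h, 37 C; LiveBLAzer B/G FRET substrate 2.5 h RT; fluorescence intensity read.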

[8] = biological target: Peroxisome proliferator-activated receptor delta (Homo sapiens) (UniProt Q03181); assay: qHTS assay to identify small molecule agonists of the peroxisome proliferator-activated receptor delta (PPARd) signaling pathway (AID 743212; calls by dose curve; also: potency is read from the fitted curve at half-maximal effect); details: HEK293H PPARd-UAS-bla, beta-lactamase FRET ratio, 17 h; activation: at 62.6 µM (top of the series) unless noted
Summary of the method: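 HEK293H PPARd-bla cells; 5 h preincubation 37 C/5% CO2; compound (DMSO) 37 C; LiveBLAzer B/G FRET substrate 2 h RT; fluorescence intensity.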

[9] = qHTS assay to identify small molecule antagonists of the peroxisome proliferator-activated receptor delta (PPARd) signaling pathway - cell viability counter screen (AID 743213); details: PPARd-bla HEK293H viability, CellTiter-Glo luminescence, 17 h; viability change, negative = cytotoxic: at 62 µM (top of the series) unless noted; also: potency is read from the fitted curve at half-maximal effect; nearly all actives have a fitted effect of over 50% in size
Summary of the method: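 In this counter screen, HEK293H cells carrying a UAS-beta-lactamase reporter are co-treated with test compounds and 300 nM L165041 (final) for 17 h at 37 C; cell viability is quantified by CellTiter-Glo luminescence.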

[10] = biological target: Peroxisome proliferator-activated receptor delta (Homo sapiens) (UniProt Q03181); assay: qHTS assay to identify small molecule antagonists of the peroxisome proliferator-activated receptor delta (PPARd) signaling pathway (AID 743215; active = well fitted inhibition curve with a large enough effect in the signal ratio in the repeat runs, not every such curve was filed as active; inconclusive = weak or mixed curves, or effect the other way; inactive = no such curve, though single readings can be large or run the other way; the % refers to the signal ratio;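 also: cells stimulated with agonist L165041 at 300 nM final during compound exposure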; also: potency is read from the fitted curve at half-maximal effect; as to ratio activity, negative = inhibition: % is scaled to controls: 0 for no effect and ±100 for the full control effect); details: HEK293H PPARd-UAS-bla, beta-lactamase FRET ratio, antagonist, 17 h; ratio activity, negative = inhibition: at 62 µM (top of the series) unless noted
Summary of the method: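 Read-out is beta-lactamase FRET fluorescence, measured 2 h after substrate addition at room temperature. Beforehand, UAS-bla HEK293H cells carrying the PPARd reporter were exposed to compounds with L165041 at 300 nM final for 17 h at 37 C.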

[11] = biological target: Bile acid receptor (Homo sapiens) (UniProt Q96RI1); assay: qHTS assay to identify small molecule antagonists of the farnesoid-X-receptor (FXR) signaling pathway (AID 743217; active = well fitted inhibition curve with a large enough effect in the signal ratio in the repeat runs, not every such curve was filed as active; inconclusive = weak or mixed curves, or effect the other way; inactive = no such curve, though single readings can be large or run the other way; the % refers to the signal ratio; also: potency is read from the fitted curve at half-maximal effect); details: HEK293T FXR-UAS-bla, beta-lactamase ratio, CDCA-stimulated, 16 h; activity change, negative = inhibition: at 62.6 µM (top of the series) unless noted
Summary of the method: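 HEK 293T FXR-UAS-bla, 5000 cells/well; compound + CDCA 50 uM final; 16 h, 37 °C; B/G FRET substrate 2 h RT; fluorescence.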

[12] = qHTS assay to identify small molecule agonists of the farnesoid-X-receptor (FXR) signaling pathway - cell viability counter screen (AID 743218); details: FXR-bla HEK293T viability, CellTiter-Glo luminescence, 16 h; viability change, negative = cytotoxic: at 62.6 µM (top of the series) unless noted; also: nearly all actives have a fitted effect of over 45% in size; also: potency is read from the fitted curve at half-maximal effect
Summary of the method: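 HEK 293T FXR-bla cells; 5 h pre-incubation, 16 h compound exposure at 37 C; LiveBLAzer substrate 2 h RT, then CellTiter-Glo 30 min RT, luminescence.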

[13] = biological target: Vitamin D3 receptor (Homo sapiens) (UniProt P11473); assay: qHTS assay to identify small molecule antagonists of the vitamin D receptor (VDR) signaling pathway (AID 743223; active = well fitted inhibition curve with a large enough effect in the signal ratio in the repeat runs, not every such curve was filed as active; inconclusive = weak or mixed curves, or effect the other way; inactive = no such curve, though single readings can be large or run the other way; the % refers to the signal ratio; also: potency is read from the fitted curve at half-maximal effect); details: VDR-UAS-bla HEK293T, beta-lactamase FRET ratio, 16 h; activity change, negative = inhibition: at 61 µM (top of the series) unless noted
Summary of the method: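 Beta-lactamase activity in VDR-bla cells is measured by FRET substrate fluorescence (2 h, room temperature) after cells spend 16 h at 37C with test compound and 3 nM final 1alpha,25-dihydroxyvitamin D3.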

[14] = qHTS assay for small molecule agonists of the antioxidant response element (ARE) signaling pathway - cell viability counter screen (AID 743203; calls by dose curve; also: potency is read from the fitted curve at half-maximal effect; nearly all actives have a fitted effect of over 55% in size); details: ARE-bla HepG2 viability, CellTiter-Glo luminescence, 16 h; viability change, negative = cytotoxic: at 73.3 µM (top of the series)
Summary of the method: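 HepG2 cells carrying ARE-driven beta-lactamase; 2,000 cells/well; 5 hrs plating; compound pinned from DMSO; 16 hrs 37C/5% CO2; CellTiter-Glo added; 30 min RT; luminescence.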

[15] = qHTS assay to identify small molecule agonists of the peroxisome proliferator-activated receptor delta (PPARd) signaling pathway - cell viability counter screen (AID 743211); details: PPARd-bla HEK293H viability, CellTiter-Glo luminescence, 17 h; activity change, negative = cytotoxicity: at 62.6 µM (top of the series); also: potency is read from the fitted curve at half-maximal effect; nearly all actives have a fitted effect of over 55% in size
Summary of the method: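 Following 5 h plating at 37 C and 5% CO2, PPARd UAS-bla HEK293H cells took up test compounds for 17 h. Viability was quantified by luminescence 30 min after CellTiter-Glo addition at room temperature.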

[16] = qHTS assay to identify small molecule antagonists of the farnesoid-X-receptor (FXR) signaling pathway - cell viability counter screen (AID 743221; active = well fitted cell-killing curve with a large enough effect in the repeat runs, not every such curve was filed as active; inconclusive = weak or mixed curves, or effect the other way; inactive = no such curve, though single readings can be large or run the other way; also: nearly all actives have a fitted effect of over 50% in size; also: potency is read from the fitted curve at half-maximal effect); details: FXR-bla HEK293T viability, CellTiter-Glo luminescence, 16 h; activity change, negative = cytotoxicity: at 62.6 µM (top of the series)
Summary of the method: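 Compound effects on cell number were measured as CellTiter-Glo luminescence in HEK 293T cells expressing FXR-UAS-bla, after 16 h at 37 C with 50 uM CDCA (final).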

[17] = biological target: Vitamin D3 receptor (Homo sapiens) (UniProt P11473); assay: qHTS assay to identify small molecule agonists of the vitamin D receptor (VDR) signaling pathway (AID 743222; calls by dose curve; also: % is scaled to controls: 0 for no effect and ±100 for the full control effect); details: HEK293T VDR-UAS-bla, beta-lactamase FRET ratio, 16 h; activation: at 63.5 µM (top of the series) unless noted
Summary of the method: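 VDR-bla cells, 2,000/well; 4 h preincubation 37C; cpd (DMSO) 16 h; LiveBLAzer B/G substrate 2 h RT; fluorescence intensity read.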

[18] = biological target: Bile acid receptor (Homo sapiens) (UniProt Q96RI1); assay: qHTS assay to identify small molecule agonists of the farnesoid-X-receptor (FXR) signaling pathway (AID 743220; active = well fitted activation curve with a large enough effect in the signal ratio in the repeat runs, not every such curve was filed as active; inconclusive = weak or mixed curves, or effect the other way; the % refers to the signal ratio; also: % is scaled to controls: 0 for no effect and ±100 for the full control effect); details: HEK293T FXR-UAS-bla, beta-lactamase FRET ratio, 16 h; activation: at 62.6 µM (top of the series) unless noted
Summary of the method: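 Beta-lactamase reporter under UAS control in GeneBLAzer FXR HEK 293T cells (5000/well) measured with LiveBLAzer FRET substrate after 2 h at room temperature. Compound exposure lasted 16 h at 37C.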

[19] = biological target: Peroxisome proliferator-activated receptor gamma (Homo sapiens) (UniProt P37231); assay: qHTS assay to identify small molecule agonists of the peroxisome proliferator-activated receptor gamma (PPARg) signaling pathway (AID 743094; active = well fitted activation curve with a large enough effect in the signal ratio in the repeat runs, not every such curve was filed as active; inconclusive = weak or mixed curves, or effect the other way; inactive = no such curve, though single readings can be large or run the other way; the % refers to the signal ratio; also: % is scaled to controls: 0 for no effect and ±100 for the full control effect); details: HEK293H PPARg-UAS-bla, beta-lactamase FRET ratio, 17 h; activation: at 57 µM (top of the series) unless noted
Summary of the method: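 Beta-lactamase FRET fluorescence was the read-out after a 1 h room-temperature substrate step, following 17 h compound treatment at 37C of HEK293H cells expressing a UAS-driven bla reporter responsive to PPARg.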
Tags tell the direction and shape of the fitted curve or compound fluorescence and quenching.

UniProt Q03181, sequence (Q03181 whole entry, looked up): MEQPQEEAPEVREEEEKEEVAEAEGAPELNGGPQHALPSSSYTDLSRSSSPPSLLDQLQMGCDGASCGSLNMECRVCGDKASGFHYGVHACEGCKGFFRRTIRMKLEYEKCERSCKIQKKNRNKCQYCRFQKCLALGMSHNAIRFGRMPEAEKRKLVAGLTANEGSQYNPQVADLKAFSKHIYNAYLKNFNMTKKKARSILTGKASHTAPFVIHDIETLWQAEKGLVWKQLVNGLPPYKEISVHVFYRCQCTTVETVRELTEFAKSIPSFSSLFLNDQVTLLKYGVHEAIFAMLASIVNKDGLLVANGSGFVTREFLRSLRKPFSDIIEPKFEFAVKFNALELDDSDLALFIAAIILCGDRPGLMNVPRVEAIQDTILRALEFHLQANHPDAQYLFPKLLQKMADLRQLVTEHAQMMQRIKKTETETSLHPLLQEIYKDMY
UniProt Q96RI1, sequence (Q96RI1 whole entry, looked up): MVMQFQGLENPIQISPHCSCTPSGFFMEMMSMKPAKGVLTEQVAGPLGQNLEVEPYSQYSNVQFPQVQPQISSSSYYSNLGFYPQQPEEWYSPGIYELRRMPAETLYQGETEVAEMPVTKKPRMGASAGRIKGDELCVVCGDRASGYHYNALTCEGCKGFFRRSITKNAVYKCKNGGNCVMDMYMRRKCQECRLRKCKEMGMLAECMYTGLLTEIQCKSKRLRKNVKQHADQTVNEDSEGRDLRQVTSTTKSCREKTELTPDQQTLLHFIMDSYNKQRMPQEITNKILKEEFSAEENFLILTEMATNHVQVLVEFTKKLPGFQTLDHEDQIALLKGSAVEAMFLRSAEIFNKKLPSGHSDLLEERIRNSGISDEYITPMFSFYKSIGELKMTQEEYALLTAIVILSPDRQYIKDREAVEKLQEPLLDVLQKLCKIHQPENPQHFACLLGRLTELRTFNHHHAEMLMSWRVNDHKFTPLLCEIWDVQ
UniProt P11473, sequence (P11473 whole entry, looked up): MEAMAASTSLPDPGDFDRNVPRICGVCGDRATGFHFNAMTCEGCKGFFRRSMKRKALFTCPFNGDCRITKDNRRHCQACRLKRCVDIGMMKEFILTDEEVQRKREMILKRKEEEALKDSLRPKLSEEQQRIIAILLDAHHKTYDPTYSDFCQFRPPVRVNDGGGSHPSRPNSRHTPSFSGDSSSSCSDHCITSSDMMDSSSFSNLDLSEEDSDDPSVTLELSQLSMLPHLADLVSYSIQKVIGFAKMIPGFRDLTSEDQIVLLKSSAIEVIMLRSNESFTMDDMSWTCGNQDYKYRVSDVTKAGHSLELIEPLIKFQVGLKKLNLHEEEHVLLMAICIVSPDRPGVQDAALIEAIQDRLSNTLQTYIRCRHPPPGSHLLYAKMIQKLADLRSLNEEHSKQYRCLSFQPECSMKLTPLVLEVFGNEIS
UniProt P37231, sequence (P37231 whole entry, looked up): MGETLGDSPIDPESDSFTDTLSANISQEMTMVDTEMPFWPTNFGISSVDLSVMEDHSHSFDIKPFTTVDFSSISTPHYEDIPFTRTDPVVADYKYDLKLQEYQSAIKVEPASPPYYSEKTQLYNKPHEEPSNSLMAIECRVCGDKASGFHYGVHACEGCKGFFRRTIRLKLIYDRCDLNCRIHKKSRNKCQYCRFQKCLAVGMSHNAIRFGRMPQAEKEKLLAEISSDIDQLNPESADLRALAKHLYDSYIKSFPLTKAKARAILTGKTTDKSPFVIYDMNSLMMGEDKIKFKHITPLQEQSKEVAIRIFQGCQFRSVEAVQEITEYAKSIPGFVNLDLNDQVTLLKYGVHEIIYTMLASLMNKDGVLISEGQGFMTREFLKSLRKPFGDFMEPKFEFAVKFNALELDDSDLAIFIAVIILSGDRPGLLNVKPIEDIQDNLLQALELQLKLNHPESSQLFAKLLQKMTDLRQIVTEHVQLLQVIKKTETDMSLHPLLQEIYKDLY

CC(NCCC(c1ccccc1)c1ccccc1)c1ccccc1 (centres undefined)
active: Potency [2] 26.6 µM | Potency [4] 23.7 µM | Potency [9] 8.41 µM | Potency [12] 23.7 µM
inconclusive: Potency [1] 33.5 µM [cytotoxic, single point] | Potency [3] 11.9 µM [inhibitor, partial curve] | Potency [5] 33.5 µM | Potency [6] 33.5 µM [cytotoxic, single point] | Potency [7] 33.5 µM | Potency [8] 15 µM [partial curve] | ratio activity, negative = inhibition [10] -46.8% | activity change, negative = inhibition [11] -26% | activity change, negative = inhibition [13] -31.3%

COC(=O)[C@@H](N)Cc1ccc(O)c(O)c1
inconclusive: Potency [2] 33.5 µM [falling, single point] | ratio activity, negative = inhibition [3] -1.56%
inactive: Potency [12]
active: Potency [1] 26.6 µM

CC(Cc1cccc(C(F)(F)F)c1)NCCOC(=O)c1ccccc1 (centres undefined)
inconclusive: Potency [1] 33.5 µM [cytotoxic, single point] | Potency [2] 26.6 µM [falling, single point] | Potency [5] 21.1 µM [falling, partial curve] | Potency [7] 26.6 µM [partial curve] | Potency [10] 7.5 µM [rising, partial curve, poor fit] | Potency [16] 33.5 µM [falling, single point] | activation [17] -17.1% | Potency [13] 21.3 µM [rising, partial curve, poor fit]
active: Potency [4] 23.7 µM | Potency [14] 23.7 µM | Potency [6] 23.7 µM | Potency [15] 21.1 µM | Potency [9] 18.8 µM | Potency [12] 21.1 µM

O=[N+]([O-])c1ccc(O)cc1
inactive: Potency [16]
inconclusive: Potency [1] 12.2 µM [cytotoxic, partial curve, poor fit] and 30.6 µM [cytotoxic, partial curve] | Potency [2] 71.2 µM [falling, single point] | ratio activity, negative = inhibition [3] -3.41% | Potency [5] 68.6 µM [rising, partial curve, poor fit] | ratio activity, negative = inhibition [10] 25.6% [at 80.4 µM] | Potency [12] 0.0571 µM [rising, partial curve, poor fit]

COc1cc(C(=O)NC2CCN(C)CC2)ccc1Nc1ncc2c(n1)N(C1CCCC1)CC(F)(F)C(=O)N2C
inactive: Potency [8]
active: Potency [1] 25 µM | Potency [4] 50.4 µM | Potency [15] 11.3 µM | Potency [9] 7.11 µM | Potency [10] 14.2 µM | Potency [11] 22.5 µM | Potency [12] 17.9 µM | Potency [13] 6.34 µM
inconclusive: Potency [2] 7.05 µM [falling, full curve] | Potency [3] 50.4 µM [rising, partial curve, poor fit] | Potency [5] 49.9 µM [falling, partial curve] | Potency [6] 1.79 µM [cytotoxic, full curve] | activation [18] -11.8% [fluorescent] | Potency [16] 0.504 µM [falling, full curve, poor fit]

Clc1ccc2c(c1)CCc1cccnc1C2=C1CCNCC1
inconclusive: Potency [1] 29.8 µM [cytotoxic, partial curve, poor fit] | Potency [2] 23.7 µM [falling, partial curve] | activation [19] -10.4% | Potency [5] 11.9 µM [falling, single point] | Potency [6] 0.0266 µM [cytotoxic, full curve, poor fit] | Potency [12] 9.44 µM [cytotoxic, partial curve]
active: Potency [9] 15 µM | Potency [10] 29.8 µM | Potency [11] 29.8 µM | Potency [16] 29.8 µM
inactive: Potency [18]

From PubChem BioAssay (Tox21)
